The BET-seq Pho4 binding data (Le et al. 2018)
The other results are listed elsewhere or left out. The energies were worked out here from pooled read counts, against the library average; single values are noisy.

These sequences were tested against T1, Pho4 (S. cerevisiae) (UniProt P07270) (assay: relative binding free energy (BET-seq); higher = weaker binding). Conditions: reference: library average.
T1 sequence: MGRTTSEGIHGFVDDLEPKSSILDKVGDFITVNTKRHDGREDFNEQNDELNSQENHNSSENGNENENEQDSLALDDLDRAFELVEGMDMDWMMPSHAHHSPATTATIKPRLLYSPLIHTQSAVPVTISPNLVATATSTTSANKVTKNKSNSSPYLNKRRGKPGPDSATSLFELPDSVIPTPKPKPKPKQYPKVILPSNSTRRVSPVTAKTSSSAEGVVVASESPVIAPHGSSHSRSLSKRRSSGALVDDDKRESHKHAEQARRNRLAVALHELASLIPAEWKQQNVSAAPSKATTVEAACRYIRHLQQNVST

| Sequence | relative binding free energy |
| --- | --- |
| TTTCACACGTGTAATG | 0.18 kcal/mol |
| GTTAACACGTGGGTGG | -0.13 kcal/mol |
| GATTTCACGTGTTTGC | 0.53 kcal/mol |
| ATTGACACGTGAGCGG | 0.09 kcal/mol |
| GGGGTCACGTGATATG | 0.22 kcal/mol |
| CGTGGCACGTGTGCCT | -0.03 kcal/mol |
| TGGCACACGTGATTGT | 0.18 kcal/mol |
| TCTGGCACGTGGGCGT | -0.29 kcal/mol |
| TCTGTCACGTGAGTAT | 0.16 kcal/mol |
| AATCACACGTGGTGGT | 0 kcal/mol |
| GGTACCACGTGGGCTG | -0.14 kcal/mol |
| TAGGTCACGTGTAGCA | 0.31 kcal/mol |
| GGGAACACGTGAAGAT | 0.39 kcal/mol |
| TGATTCACGTGGGTAG | 0.18 kcal/mol |
| TCTGACACGTGTAGGT | 0.1 kcal/mol |
| TTATTCACGTGGATGG | 0.33 kcal/mol |
| AGTGGCACGTGTTATC | 0.03 kcal/mol |
| GTTTCCACGTGGGGAT | 0.12 kcal/mol |
| ATGTGCACGTGAGGGG | 0.23 kcal/mol |
| ATATGCACGTGGACAT | -0.05 kcal/mol |
| GGTGACACGTGGTTCT | -0.04 kcal/mol |
| CGGTTCACGTGTTTAT | 0.37 kcal/mol |
| CGGTCCACGTGTTGTT | 0.12 kcal/mol |

| Sequence | relative binding free energy |
| --- | --- |
| GGAGTCACGTGTCCGT | 0.28 kcal/mol |
| GTGTTCACGTGGATCG | 0.3 kcal/mol |
| TTTATCACGTGTCTCG | 0.21 kcal/mol |
| TGGTGCACGTGTGGAC | 0.18 kcal/mol |
| GGAATCACGTGTTTGC | 0.31 kcal/mol |
| ATGCGCACGTGGGGTC | -0.33 kcal/mol |
| TTAGGCACGTGGGGGG | -0.21 kcal/mol |
| GTAACCACGTGTGGTT | 0.01 kcal/mol |
| GGGGTCACGTGGTGTA | 0.15 kcal/mol |
| GTCGGCACGTGTATAG | 0.01 kcal/mol |
| GACGACACGTGGTGGT | 0.04 kcal/mol |
| TAAGGCACGTGTGGCG | -0.11 kcal/mol |
| CTCGGCACGTGGTGTT | -0.17 kcal/mol |
| AGCTACACGTGGGAGT | 0.04 kcal/mol |
| TTTCACACGTGGCGTT | -0.03 kcal/mol |
| TTGGGCACGTGATAAG | 0.02 kcal/mol |
| GATCTCACGTGGGTTA | 0.15 kcal/mol |
| AATGACACGTGTTGTT | -0.08 kcal/mol |
| TGGGGCACGTGCGCGT | -0.24 kcal/mol |
| ATGAACACGTGTGGCG | 0.06 kcal/mol |
| TATGTCACGTGACTTA | 0.15 kcal/mol |
| CTTGGCACGTGACATG | 0.05 kcal/mol |
| TAGAACACGTGAGTTG | 0.25 kcal/mol |

| Sequence | relative binding free energy |
| --- | --- |
| GGTAACACGTGGTGGA | 0.02 kcal/mol |
| CGGCGCACGTGGGTTT | -0.25 kcal/mol |
| TAGTGCACGTGGGGTG | -0.2 kcal/mol |
| TTCGTCACGTGTTGCT | 0.02 kcal/mol |
| TTGAACACGTGGGTGC | -0.07 kcal/mol |
| TGTGGCACGTGGGGGT | -0.18 kcal/mol |
| ATGGTCACGTGCTGAT | 0.11 kcal/mol |
| AAGGGCACGTGACAGG | 0 kcal/mol |
| TTGGGCACGTGAACGT | 0.15 kcal/mol |
| GGTTGCACGTGGAGAT | 0.09 kcal/mol |
| TGGTGCACGTGCGATG | -0.09 kcal/mol |
| TAGGTCACGTGAAGTG | 0.32 kcal/mol |
| AGTTTCACGTGTTCTT | 0.16 kcal/mol |
| TGCGTCACGTGCGGGA | -0.12 kcal/mol |
| AATAGCACGTGTGTAT | -0.08 kcal/mol |
| GGATGCACGTGAGTAA | 0.31 kcal/mol |
| GGTATCACGTGACTGG | 0.33 kcal/mol |
| AGTGCCACGTGGATGG | -0.06 kcal/mol |
| AGGGTCACGTGGAGGA | 0.09 kcal/mol |
| GGAGGCACGTGTAGGA | -0.19 kcal/mol |
| TTGGACACGTGGCAAT | 0.11 kcal/mol |
| TGGTTCACGTGTCTCT | 0.31 kcal/mol |
| TGTTTCACGTGAATCG | 0.23 kcal/mol |

| Sequence | relative binding free energy |
| --- | --- |
| GTCTGCACGTGGATTT | 0.1 kcal/mol |
| GGTTTCACGTGTTGGG | 0.31 kcal/mol |
| AGAGGCACGTGTTCTG | -0.25 kcal/mol |
| TGTGTCACGTGGTGCC | 0.08 kcal/mol |
| TTTTTCACGTGATTAC | 0.18 kcal/mol |
| CGGGGCACGTGGATGG | -0.08 kcal/mol |
| TGGCGCACGTGGTAAT | -0.15 kcal/mol |
| TGCGTCACGTGTTTGA | -0.01 kcal/mol |
| ATTGCCACGTGGCGGG | -0.21 kcal/mol |
| TGGAGCACGTGTGCGA | -0.09 kcal/mol |
| AGTGGCACGTGAGGCT | -0.02 kcal/mol |
| GATGGCACGTGATAGG | 0.03 kcal/mol |
| TGTTGCACGTGGGAGT | 0.04 kcal/mol |
| TAAGGCACGTGAGTGT | 0.06 kcal/mol |
| GGTATCACGTGTGACT | 0.2 kcal/mol |
| GTGCTCACGTGTTGCG | 0.14 kcal/mol |
| AGATTCACGTGACGTT | 0.44 kcal/mol |
| TGTTACACGTGCTCGG | 0.07 kcal/mol |
| GTTGTCACGTGCAGTA | 0.1 kcal/mol |
| CAGTGCACGTGGGCTG | -0.3 kcal/mol |
| GTACTCACGTGGTTTA | 0.16 kcal/mol |
| TATTGCACGTGTGTGC | 0.05 kcal/mol |
| GTTTACACGTGCGTTA | 0.23 kcal/mol |

| Sequence | relative binding free energy |
| --- | --- |
| AAGTGCACGTGTAGTC | 0.15 kcal/mol |
| CTTAACACGTGGGGAT | -0.12 kcal/mol |
| TATAACACGTGGGGTC | -0.02 kcal/mol |
| CGGTGCACGTGTGCTT | 0 kcal/mol |
| TACGTCACGTGTAATT | 0.27 kcal/mol |
| ATCGGCACGTGTGGTG | 0.08 kcal/mol |
| GAGGTCACGTGGATCG | 0.17 kcal/mol |
| CTGTACACGTGGCGTA | 0.08 kcal/mol |
| TTTTCCACGTGAGCGT | 0.25 kcal/mol |
| TGAAGCACGTGCGCGG | -0.19 kcal/mol |
| TAGTACACGTGGAGGC | 0.1 kcal/mol |
| TGGTACACGTGGGCTA | -0.08 kcal/mol |
| AAAGGCACGTGGTTAA | -0.23 kcal/mol |
| TAGTTCACGTGCGTCG | 0.21 kcal/mol |
| ATGGACACGTGGGTGT | -0.15 kcal/mol |
| GCTTACACGTGTGTGC | 0.25 kcal/mol |
| TACGTCACGTGTTGTT | -0.01 kcal/mol |
| AGTCGCACGTGTGTTA | -0.06 kcal/mol |
| TTTGACACGTGGATGT | 0.08 kcal/mol |
| TGTTACACGTGGTAGA | -0.15 kcal/mol |
| ATTAGCACGTGATAGA | 0.08 kcal/mol |
| TTATACACGTGGTGGT | -0.04 kcal/mol |
| ATTGTCACGTGGGGTG | -0.04 kcal/mol |
